Assay results from the supplement of paper PMC10126150.
Sequences with one replicate were seen in a single cluster, so their values are uncertain.

system: ATP; assay: switch fluorescence ratio, 500 uM ATP over buffer (Cy3 cluster intensity, sum of 5 cycles each) (fold (ratio)); higher = stronger signal-on switching upon ATP binding; sequences stand for … in TCGTCGGCAGCGTCAGATGTGTATAAGAGACAGTTTTTTTTTTTTTTTTTTTTTTTTT…TC; settings: aptamer strand: ATP DNA aptamer (quencher-CACCTGGGGGAGTATTGCGGAGGAAGG + anchor), 100 nM annealed; ATP concentration: 500 uM; one replicate
How it was run: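 Exposure to 500 uM ATP lasted 15 min at 22 °C before imaging, and a selection-buffer image was taken beforehand, for Cy3-labelled switching-strand clusters on a modified Illumina MiSeq flow-cell annealed to 100 nM quencher-labelled ATP aptamer. Five buffer/ATP cycles were run with NaOH stripping and re-annealing between them. The fluorescence ratio per cluster is summed target-cycle over summed buffer-cycle Cy3 intensity, averaged per switch-domain sequence. Clusters outside 100-1000 RFU were excluded.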

| Sequence | switch fluorescence ratio |
| --- | --- |
| CGCATACTTT | 3.81 |
| AAGAAACTTT | 1.02 |
| GGGATTTCAG | 1.01 |
| GCCACGAAAT | 1.06 |
| TTACGGCTCC | 1.03 |
| GGATTCGGAC | 0.983 |
| GGCGTGTTCG | 1 |
| ATGCAACTAA | 1.06 |
| CCTTTAAGGA | 0.989 |
| CTGGTCACGG | 0.991 |
| CTCCTTCTGT | 1.01 |
| AGCCTCGACT | 0.976 |
| TAACAGTTTC | 0.949 |
| GGGCTGCACA | 1 |
| CAAATTCAGA | 0.989 |
| CAATGCTTCA | 1.08 |
| CGGGCACGTA | 1.02 |
| TTAACGTCTG | 0.975 |
| CGTGCGTCGT | 0.931 |
| GAACGTCCC | 1.08 |
| TTAAAGAGTG | 1.04 |
| CGTGATTCGT | 0.999 |
| TAGATATCCT | 1.04 |

| Sequence | switch fluorescence ratio |
| --- | --- |
| TAGGAGGCA | 1.02 |
| GCTTAATTGC | 1.05 |
| TTGCGTTGTA | 1.07 |
| AGATTTCCTG | 0.955 |
| TCCTTATGGC | 1.08 |
| TCCCCAGC | 2.26 |
| TCCGGAGA | 1.55 |
| CCAGAAAGTC | 1.04 |
| ACCTGGGTCC | 1.04 |
| GATTCATTGG | 1.01 |
| CCCAGTTGCC | 1.22 |
| CTTAGTTGTC | 0.985 |
| GCCAATAACT | 1.11 |
| GAGGCATGAT | 0.993 |
| ATAGGGTTTT | 0.989 |
| TTCGTCTTA | 0.938 |
| TACCAAACCT | 2.55 |
| AATTACGGGA | 1.01 |
| ATCAAACGGT | 1.02 |
| ATCCTCACGG | 1.13 |
| GGTCGTGCAT | 0.971 |
| GGGCACGTTA | 1.05 |
| TGTGAGGAG | 1 |

| Sequence | switch fluorescence ratio |
| --- | --- |
| TAAGTAGAGT | 1 |
| AACAGGTCCG | 1.23 |
| AAATGGAAAT | 0.965 |
| GCTTGGCGA | 0.97 |
| AATCGGGTTA | 0.977 |
| CCTATTTGAT | 1.02 |
| TTAAACACGC | 1.07 |
| CCATTACCAC | 1.06 |
| TGCAAACTCG | 1.4 |
| CGCCGACTCG | 1.05 |
| GTCGGGCCCT | 1.02 |
| AGGATGCTGA | 0.992 |
| GGCGGTAGG | 1.02 |
| GGTTGCTAAG | 1.03 |
| GGCCGGTTAA | 1.02 |
| ATGCGAGC | 1.02 |
| GTAGAAGAGT | 0.987 |
| GGATCAGCTA | 1.03 |
| GCAATTAGGG | 1.06 |
| CTCAGTTTCC | 1.04 |
| TATCGATAAG | 1 |
| TAAGGAGTTG | 1.03 |
| TTGGTAACTC | 0.986 |

| Sequence | switch fluorescence ratio |
| --- | --- |
| ATGAATTTAC | 1.02 |
| AGGGACCTGC | 0.978 |
| TGGTGTTAAA | 0.997 |
| TATGCGACGG | 1.05 |
| AATGTACGTA | 1.06 |
| GTCCCGTTTA | 0.979 |
| TCGAGATGAT | 1 |
| GTAAGGACAT | 1.06 |
| TCTTTTAGTC | 0.934 |
| TGCGTATATC | 1.12 |
| GCCATGACAG | 1.01 |
| TACGGACAGG | 1.36 |
| GATAACATGG | 1.02 |
| CATGGGGCTG | 0.965 |
| ACGGAGTGTT | 0.999 |
| TTGATTTATC | 0.964 |
| ACAAGAGAGT | 1 |
| CTCTCTGGTG | 1.74 |
| CTCACCTTTC | 1.95 |
| CCGAAAGAAT | 4.16 |
| ATGATATAGG | 1.01 |
| GAGGGAGTCC | 0.939 |
| ACCTTCCTTG | 3.29 |

| Sequence | switch fluorescence ratio |
| --- | --- |
| CTCATAGGCA | 0.971 |
| ATGACTGCGT | 0.998 |
| AGATACTTTA | 0.995 |
| CGCCATGAGG | 0.961 |
| TGCGGGCTTG | 0.979 |
| GAGTTTTCCG | 1.04 |
| ACGTCTGTCT | 0.987 |
| TTAGTGAACT | 1.03 |
| GGAATAGGGC | 0.972 |
| GTTAATTCGT | 1 |
| TCCTCACCGG | 1.08 |
| TGCGAAATCG | 0.974 |
| ACTCTCGGCA | 1.29 |
| TGTGACTATC | 0.998 |
| TTTGGGATAA | 1.43 |
| CAGCGGCGAG | 1.01 |
| ATGAGATAGA | 0.985 |
| CCAGGGTACG | 1.02 |
| TCTAAAAGTT | 1.03 |
| GCCGAAGGAA | 1.13 |
| CAGTGGTGGC | 0.979 |
| TGACTCCGGA | 2.31 |
| GCTCGGACGG | 1.01 |

| Sequence | switch fluorescence ratio |
| --- | --- |
| AGAAGCGCTA | 0.912 |
| CCGGGTTATG | 1.01 |
| AAGAATTCCG | 0.998 |
| TTTAGATTG | 0.954 |
| ATGACCGGAT | 1.01 |
| TGAATAGCAA | 1.61 |
| CGTATTAGCA | 1.04 |
| TAGTAAAATG | 0.999 |
| AAAAGTTCT | 0.943 |
| CCGGCCCTTT | 1.07 |
| AGGGGCGTA | 0.967 |
| ACGATGCAG | 1.16 |
| ATCTGATATA | 0.976 |
| ATGACATCCG | 1 |
| CATATAGT | 1.03 |
| GTCACACGTC | 0.999 |
| TTCGTGGCGA | 0.963 |
| TATGCTATAT | 0.995 |
| AGAAAACATC | 0.995 |
| AGCGGCGCGG | 0.968 |
| TCTCTTAATG | 1.02 |
| CGTCGGCTGC | 1.04 |
| AGGTTCTACA | 0.991 |

| Sequence | switch fluorescence ratio |
| --- | --- |
| AAATAGCCTT | 1.12 |
| CGACGGAAAA | 1.06 |
| ACATGTATCA | 0.998 |
| CCAGCATCC | 1.48 |
| CAATTTTGAA | 0.966 |
| GTGTTTCCGA | 1.04 |
| ACGCGGCGGA | 0.997 |
| GCAGGCGTAT | 1.02 |
| GCGAATCTAT | 0.967 |
| CTTAGCATGA | 1.03 |
| ACAGATCAGG | 1.04 |
| AGTATTATAC | 1.01 |
| CGCGTAGAAA | 1.08 |
| CGCGCTCCGA | 1.39 |
| GGATCTCGTG | 0.982 |
| TGTACGGGAC | 1.3 |
| ATACGGTCGG | 1 |
| GACCTCCTAA | 1.2 |
| TTGATCCCCA | 0.967 |
